According to the supplement of paper PMC11417369:
± gives the standard deviation of the averaged measurements. The list shows a part of the results.

test system: PfAP2-EXP AP2 domain (GST-tagged); test: gcPBM binding intensity (ln(normalized median fluorescence intensity)); higher = stronger DNA binding
In short: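 Using an Agilent 4 × 180k array, primer-extended double-stranded 36-bp intergenic genomic probes and negative controls were exposed for 1 h to GST-fused P. falciparum DNA-binding domains expressed in E. coli. Binding was carried out in 1× PBS with 1% milk, 0.2 mg/ml BSA, 0.5% salmon testes DNA and 0.03% Triton X-100, and protein was detected with Alexa488 anti-GST antibody and a 488 nm scan. Binding intensity is the highest Masliner-normalised natural-log median intensity across replicate spots of either probe orientation.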

| Sequence | gcPBM binding intensity (ln) |
| --- | --- |
| TTAAAATTAAAAATGCGTACACATATACATAAAAAA [XGTACX_site1915] | 8.73 ± 0.3 |
| ATTAATTTTAATAAAGGTACACGTAGTTTTTTATTA [XGTACX_site7868] | 8.16 ± 0.34 |
| TATATATATATATATTGTACTGAACGTTTTTTTTTG [XGTACX_site8060] | 10.2 ± 0.39 |
| AACAAAACCTTATATGTACACACATATACATCACAC [CACACA_site9037] | 8.75 ± 0.23 |
| AATTTATAATTATAGAGTACATATTTTTAATATATA [XGTACX_site2566] | 8.1 ± 0.28 |
| ACAGCTACCAGATACTGTACTTTTCTCCAGACTGCA [XGTACX_site2541] | 8.64 ± 0.35 |
| TATATTTTGTTCTTTCCACACACAAATACATATATT [CACACA_site9348] | 8.9 ± 0.48 |
| ATATACATAATCTTCTTGCACTTTTTTTTTTTTTTT [GTGCAC_site9410] | 8.9 ± 0.36 |
| ATGTGATATAAGTACACACACATATGTATTTATAAC [CACACA_site6942] | 8.62 ± 0.18 |
| GTAATAATTTTTTGTAGTACACAAAAATTCATATTT [XGTACX_site2699] | 8.63 ± 0.31 |
| ATATACACTTAATTTTTTATAAAAAAAAATTTATAT [CACACA_negctrl_site498] | 8.24 ± 0.37 |
| ATTTCATTTTATAAGTGTACAATAAAAAAAAAAAAA [XGTACX_site8677] | 8.68 ± 0.42 |
| CTTAAAAAAACCTTAACACACATAAACTCTAATTTA [CACACA_site7430] | 8.14 ± 0.49 |
| GTTTACATTAAAAATTGTACTCTGTATGAATAATAT [XGTACX_site80] | 8.28 ± 0.35 |
| AAATTTGATATAAAAAGTACAAAATGTTCCTCAGCT [XGTACX_site809] | 8.56 ± 0.25 |
| ATATAAACAGAAAATAGTACTTTATATTGAAAAAAA [XGTACX_site7183] | 8.49 ± 0.4 |
| GATGATACAAAGTAATGTACATAAATACACATATTG [XGTACX_site3177] | 8.48 ± 0.3 |
| CATTATGTCGTAAATACACACATACCTATACATACA [CACACA_site6763] | 8.67 ± 0.24 |
| AATATATAGCTAAAAACACACAAATATATACGCATA [CACACA_site3608] | 8.85 ± 0.42 |
| TATACACATATATAAACACACAAAAAAAAAAAAAAA [CACACA_site7041] | 8.19 ± 0.63 |
| CCATAAGATATATGTAGTACATATTATATATATATA [XGTACX_site2104] | 9.89 ± 0.26 |
| TTTATATGATATATTACACACAAAAAAAAAAAAAAA [CACACA_site3549] | 8.21 ± 0.51 |
| TAGATACTTGTCATGGGTACATATCGTACCTTTTGG [XGTACX_site6781] | 8.5 ± 0.52 |

| Sequence | gcPBM binding intensity (ln) |
| --- | --- |
| CTCTTCTATATATAAGCATGCATTCATAATAATTTA [TGCATGCA_site679] | 9.3 ± 0.29 |
| GATAATTTTTTTCTCACACACAAATATTTTAATCAT [CACACA_site3666] | 8.57 ± 0.38 |
| AAATATATTATATCATATATTAAAGCATATATTAAA [CACACA_negctrl_site1624] | 8.17 ± 0.41 |
| GAATATTCACATACTTGTACATATATATATATATAT [XGTACX_site7302] | 10.2 ± 0.68 |
| AGGTAAAAATGGTAAGTGCATTAATGATAAAAAATG | 8.9 ± 0.83 |
| AAAAAAAAAAAACACACACACACACCGACACATACA [CACACA_site5576] | 8.35 ± 0.27 |
| CAAAAAAAATAAAACACACACACAAAAAAATAAAAA [CACACA_site466] | 8.6 ± 0.61 |
| TATAAGAATAAAAAGGGTACATAAAATAATAATATA [XGTACX_site2355] | 8.82 ± 0.38 |
| GTTTACATAGATAACTGTACGCAATGATATTAGACA [XGTACX_site1320] | 8.625 ± 0.064 |
| TGGCAAAATAGGCACACACACATATACCTATAGATT [CACACA_site7168] | 8.49 ± 0.45 |
| GTAAATATATAAACATGTACATATATAAATATATAA [XGTACX_site7262] | 8.51 ± 0.33 |
| ATATTTTGGGGACTTTTTAAAAAAGAAGTATTAAAA [CACACA_negctrl_site1228] | 8.63 ± 0.37 |
| TAATAATAGTACTGACATCGAAATATTATTAAAAAT [CACACA_negctrl_site255] | 8.3 ± 0.39 |
| AAAATATATACACAAACATGCATATAATAAATAAAT [TGCATGCA_site711] | 8.71 ± 0.38 |
| ATATTTCTGTGTGGATGTACATTATTAGCAGGCTTT [XGTACX_site6496] | 8.8 ± 0.4 |
| CAAAATAATAATAAAAGTACTAACATATTTATGAAA [XGTACX_site6078] | 8.47 ± 0.42 |
| TTCTTTTTATTTATATTTTCCCCTCTCTATAGCTAT [XGTACX_negctrl_site102] | 8.84 ± 0.49 |
| ATAATTCAAAAAAACACACAAATTACAAAATAAACT [CACACA_site6264] | 8.77 ± 0.38 |
| AAGGTGGGAAAAAATAGTACACAACAAAAATGTATG [XGTACX_site8741] | 8.75 ± 0.35 |
| ACATATAAACTGTATACACACAAATATTGCATATAT [CACACA_site6804] | 8.88 ± 0.42 |
| ATATATCTATATGTGTGTACATATAAGTATTTATAT [XGTACX_site5333] | 8.4 ± 0.3 |
| AGAAAAGAGAAATGGGCACACACACCCATATTATAT [CACACA_site8433] | 8.29 ± 0.38 |
| TACATTCTAAATATTACACACTTTATAAAATAATAA [CACACA_site4069] | 8.26 ± 0.39 |

| Sequence | gcPBM binding intensity (ln) |
| --- | --- |
| ATATATATAAATATATGTACTAATATATACATATAT [XGTACX_site2289] | 8.22 ± 0.092 |
| TTGTATCATATATTATGTACATATTTATTTATTATC [XGTACX_site7723] | 8.45 ± 0.29 |
| ATATTATATCTAATCGTGCACAACTGTACATTTGTC | 9.13 ± 0.092 |
| CCCATGTAATATTAAACACACACTCATATAACACAA [CACACA_site7906] | 8.81 ± 0.83 |
| ATATTTAAATATATTTATATATATAAAAAAAAATAT [GTGCAC_negctrl_site312] | 8.56 ± 0.39 |
| CAAAATATTTAAAAAAGTACTTAAAATAAATTCAAA [XGTACX_site6866] | 8.48 ± 0.38 |
| AATATAAATAAAAACACACACACACGGATATTTATA [CACACA_site7134] | 9.04 ± 0.39 |
| CACACAACTATCAAGGTGCTAAAATGAAATAATATA [GTGCAC_site9871] | 8.7 ± 0.35 |
| AAAAAAATAAAAAATATATAAATAATTAATACATGT [GTGCAC_negctrl_site633] | 8.31 ± 0.36 |
| AAACCAAGGCACAATAATTAAATAAATAAAATCATG [GTGCAC_negctrl_site574] | 8.4 ± 0.58 |
| ATATAATTTTTCAAGTGTACTTTTTTTTTTTAACAT [XGTACX_site3050] | 8.57 ± 0.47 |
| ATTTATATATATATAGGTACACATATTTATATATAA [XGTACX_site8487] | 8.23 ± 0.2 |
| TCATTCATATGTTACACACACACACCCACATAAAAA [CACACA_site3245] | 8.78 ± 0.47 |
| CATAATTATGCAATTGCACACAACTATCATTTTTTT [CACACA_site2997] | 9.06 ± 0.27 |
| TCACTAAACCATTAGAGTACTTGACATATAATGAGC [XGTACX_site3272] | 8.29 ± 0.2 |
| TATATATAAAAAACATGTACACAAATTTACATACAT [XGTACX_site4777] | 8.54 ± 0.26 |
| AAGAGTTAAAAAAATACACACATATATATTTTTTTA [CACACA_site1980] | 8.34 ± 0.41 |
| TTTTTGTATGCTTCCCGACTACATTATGCCATAAAT [CACACA_negctrl_site136] | 9.12 ± 0.47 |
| GATTATATATGAAAATGTACAAATATATATATATAT [XGTACX_site5963] | 9.96 ± 0.28 |
| AAAAAAAAAAAAAAAAAAAAAAAAAAATACATATGT [XGTACX_negctrl_site95] | 9.15 ± 0.042 |
| TAAAAGGATGCATATACACACATATAGATTTATATA [CACACA_site7336] | 8.32 ± 0.47 |
| TTTTTTTTGTATTTTTCACACACACCGAAGTAAACA [CACACA_site8575] | 8.71 ± 0.43 |
| ATATAATCTGAGTGCACACAAATAAATAAACATACA [CACACA_site422] | 8.95 ± 0.25 |

| Sequence | gcPBM binding intensity (ln) |
| --- | --- |
| TTAAATTCGTCATTTTAAAATAATACAAAAGTTCAA [CACACA_negctrl_site19] | 8.37 ± 0.43 |
| AGTTGCATACATTGAAGTACAGAACATTTATATATA [XGTACX_site240] | 8.57 ± 0.4 |
| TTTTTCCTTATTAATACACACATTCACCTTTTAAAT [CACACA_site479] | 8.79 ± 0.4 |
| ATTTATAAAATATAATTACATTTTTAAATAATAAAA [GTGCAC_negctrl_site43] | 8.13 ± 0.35 |
| CTTATGTGCATACCTACACACTTACCTATATTTATA [CACACA_site7411] | 8.72 ± 0.17 |
| TTACGATTTAAAATGGGTACATATATATGAAAAAAA [XGTACX_site545] | 8.68 ± 0.4 |
| TCAAAGTAAAACAGGACATGCACAGAACATCCTGCC [TGCATGCA_site2] | 8.72 ± 0.35 |
| TAAAGAAAAATATAAAGTACAAAAATAAAAAAAATA [XGTACX_site8226] | 8.68 ± 0.52 |
| TACACAAAGTTACATACACACTAATATTTACACCAT [CACACA_site6602] | 8.64 ± 0.36 |
| AAAAAAAAAACATACACACACATATAGATTTATATG [CACACA_site6847] | 8.46 ± 0.42 |
| GTATTTATGTGTTTGGTGCAAGGGAGAATTTTTTTT | 8.83 ± 0.34 |
| CATAAATACAAATATACACACATATTTATATTTATA [CACACA_site7277] | 8.28 ± 0.36 |
| AATATGTTTTACGTCTCACACATATAGGTTTATATT [CACACA_site4713] | 8.8 ± 0.38 |
| ATATATAGATGTGAATTATTTATATTATCTATTCTT [CACACA_negctrl_site518] | 8.16 ± 0.18 |
| ATTATACTTTCCATTCGTACATATATAAATAAATAA [XGTACX_site6245] | 8.93 ± 0.35 |
| AAACTTCAAAAAGAGCACTTGAATTTTTTTTTTTTT [TGCATGCA_negctrl_site133] | 8.12 ± 0.39 |
| AAAAAGAACACAAAAAGTACAAAAATTATAATGATA [XGTACX_site2676] | 8.79 ± 0.74 |
| ATATTTTAAAATAATACACACAAAATGATTCTTAAT [CACACA_site2930] | 8.88 ± 0.46 |
| AACAATAAATTATTATGTACACATATATTATATATA [XGTACX_site4629] | 8.38 ± 0.32 |
| TATATTATATAATTTTAACACACAAGAATATAAACT [CACACA_site8378] | 8.71 ± 0.57 |
